Sequences with one replicate were seen in a single cluster, so their values are uncertain.
System: ATP
Assay: switch fluorescence ratio, 500 uM ATP over buffer (Cy3 cluster intensity, sum of 5 cycles each) (fold (ratio)); higher = stronger signal-on switching upon ATP binding; sequences stand for … in TCGTCGGCAGCGTCAGATGTGTATAAGAGACAGTTTTTTTTTTTTTTTTTTTTTTTTT…TC
Details: aptamer strand: ATP DNA aptamer (quencher-CACCTGGGGGAGTATTGCGGAGGAAGG + anchor), 100 nM annealed; ATP concentration: 500 uM; one replicate
How it was run: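 Cy3-labelled switching-strand clusters on a modified Illumina MiSeq flow-cell were annealed to 100 nM quencher-labelled ATP aptamer and imaged first in selection buffer, then after 15 min with 500 uM ATP at 22 °C. NaOH stripping and re-annealing separated each of five buffer/ATP cycles, and clusters outside 100-1000 RFU were excluded. The fluorescence ratio sums target-cycle Cy3 intensity over buffer-cycle Cy3 intensity per cluster and averages it per switch-domain sequence.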
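Note: ATP exposure 15 min at 22 °C before imaging.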

Row | Sequence | switch fluorescence ratio
1 | CATTAACTAT | 0.956
2 | TCCACCGTGA | 1.01
3 | TCAGAAAAAT | 1.05
4 | GGAGTAAGGT | 1.01
5 | AGTGGAAAA | 0.989
6 | TGTAGGCACA | 1.02
7 | TATGACACTC | 1.01
8 | GGGAGTCCG | 1.01
9 | GGTAAAGAGG | 0.967
10 | TGGTCATTTA | 1.04
11 | CTGCTTCGGT | 1.05
12 | GCACTGTGAT | 1.01
13 | GTGTAGATTT | 0.975
14 | TGTAAGCCCT | 0.973
15 | CGAGGGAAGT | 0.99
16 | TCGAGGAGA | 0.991
17 | GCTATCAGCA | 1
18 | GCCTCATCGC | 0.973
19 | TGAAAATCAG | 0.952
20 | GTGGTGTAAG | 0.955
21 | ACGTGTTGC | 1.01
22 | GATCCTGAGA | 0.958
23 | CACGACTTGA | 1.01
24 | TGCCTTGCAT | 0.984
25 | TCAAGCACA | 1.29
26 | GATATGTTAC | 1.05

Row | Sequence | switch fluorescence ratio
27 | ACGTGCATGG | 0.979
28 | TCCATGGTGG | 1.03
29 | CTCCCCCATA | 2.22
30 | CTGGAGGAGA | 1.01
31 | ATACGACTTT | 1.08
32 | CAAATGTC | 0.905
33 | TATCGCCGCA | 1.06
34 | GGCAATCTGA | 1.1
35 | ACGTATACGC | 1.1
36 | TATGCAATGT | 1.13
37 | AGTTTCCAGT | 0.999
38 | GTGTTACCTA | 1.03
39 | TCGTGCAGCC | 0.95
40 | GTGGACAAAC | 1.05
41 | AGTTCGTTGT | 1.01
42 | CTAAGCGGAA | 1.04
43 | CGAAATGAGC | 1.03
44 | TAAATCTTGA | 1.01
45 | CCCCTGAATA | 1.08
46 | GGAGTTCGTC | 0.92
47 | CTTTTGATAG | 0.999
48 | AGATGTGCGT | 0.973
49 | TATCGGTTC | 0.934
50 | AACACAAGTC | 1.04
51 | ACGCAATGAA | 4.74
52 | TTAGGAGGAT | 0.979

Row | Sequence | switch fluorescence ratio
53 | GCCGGAAGCT | 0.984
54 | GCACAAAAAC | 1.05
55 | GGGTACCGAG | 1.03
56 | CAACGGGGCT | 1.02
57 | ACCCGGCAAG | 1.34
58 | AAACTTTCGG | 1.04
59 | GGAACCGGCG | 0.993
60 | AGTCTAATGG | 0.947
61 | CTCGGAAAGA | 0.987
62 | CAATACGCAT | 2.22
63 | CGGTGCCTAA | 0.978
64 | AACAAAATAG | 1.03
65 | AATTTAACTC | 1.04
66 | TTAGGACCAG | 1.01
67 | GCATTGAACC | 1.05
68 | GAACAGCGAA | 1.02
69 | GGGCATCGT | 0.977
70 | TCCTAGCTG | 0.964
71 | GTTTGGGCGC | 1.03
72 | GCGTCGGGA | 1.01
73 | TTCTAATCGA | 0.984
74 | GGCCGTCACT | 1
75 | TCTCACGTTA | 1.3
76 | CTTACCCTTA | 1.02
77 | CACGTATCAG | 0.957
78 | CATGCGGATA | 1.07

Row | Sequence | switch fluorescence ratio
79 | AGACCGCACT | 1.53
80 | TCCAGAGTAT | 1.06
81 | AGAACGCCTT | 1.02
82 | TATAAGGGAC | 1.1
83 | CTAAATCGG | 1.04
84 | TTGCGTCGAA | 0.977
85 | AGCTTTCCGT | 1.07
86 | AAATCGACAG | 0.988
87 | CCCAGTGAGT | 1.31
88 | TCTAGAATGA | 0.96
89 | AGTTTCAAGC | 1.14
90 | ACGATTCCGC | 1.62
91 | GCTAGACCTA | 1.02
92 | ATGGAATTGA | 1.01
93 | AAAAAGTACT | 1.07
94 | GAATTCTGAA | 0.975
95 | GGTGTTATAC | 1.04
96 | TACGCAGATC | 1.18
97 | GTGGTTCTTA | 0.968
98 | GGAAAAAATC | 1.03
99 | TGAGCCTACA | 1.04
100 | TTGTGAGATG | 1.01
101 | GCCGAACGGG | 1.06
102 | ACGGGGATGG | 0.992
103 | CGTTATTTGC | 1.02
104 | GCCAACAGGT | 1.26

Row | Sequence | switch fluorescence ratio
105 | TCAGCGCT | 0.994
106 | CTGTTTATGG | 1.1
107 | CCGATGAGTA | 1.23
108 | GGTACACCTC | 1.02
109 | CGGGTCGTGT | 0.968
110 | TCGACTTTTG | 0.96
111 | CCCGCGTGGT | 0.975
112 | ACATTATTGA | 1.02
113 | ATCGCTACGT | 1.06
114 | CAACGTTATA | 1.19
115 | GGCCCTCCTT | 0.974
116 | CTGCTTTACT | 1.24
117 | GGCGTTAGGG | 1.01
118 | AAGCAATAGC | 2.42
119 | CATTCTATTT | 0.957
120 | ATCTGAATC | 1.07
121 | TACGAGTTT | 0.976
122 | CTGAGCCTA | 1.05
123 | GGTTGGAGTC | 0.993
124 | GTAAGGAGTT | 0.971
125 | GCCGCCTACA | 0.929
126 | GATTCCTATT | 1.04
127 | TTATCTGCAC | 1.08
128 | GCTCCTAAGC | 1.01
129 | CGTGCGGTGA | 1.01
130 | TGGTTGCCGT | 1.04

Row | Sequence | switch fluorescence ratio
131 | GACCTAACTT | 1.03
132 | GGTTGGAAGC | 0.966
133 | ATGGCATTGC | 0.969
134 | TGGAGTTCTA | 0.985
135 | GCATCGACTG | 1.05
136 | ACTACGGTGT | 1.14
137 | AGCGGTATTG | 0.964
138 | TCTGTCCGGT | 1.03
139 | GTCTGAGAAT | 0.958
140 | AAGTTCGGCA | 0.988
141 | AGATCTG | 1.07
142 | AAACATTCCC | 1.73
143 | TTAACTGATT | 0.983
144 | CGCAGGCGTG | 1.03
145 | CGTGCGGAT | 1.02
146 | CTCCCTTGAT | 1.04
147 | CTAGCTTCTG | 1.02
148 | CGTTAAGGTT | 0.938
149 | GGGCGCTCCA | 0.978
150 | GTCTAATTAT | 0.998
151 | TTGCGACGGC | 0.992
152 | AAACGGAGTA | 0.994
153 | GGCCTCGCCG | 0.999
154 | ATTGCACGCA | 1.05
155 | AAAGCGATA | 1.24
156 | GAATGCTCGG | 1.13

Row | Sequence | switch fluorescence ratio
157 | GTTTACGCT | 1.06
158 | AGCCAAATGC | 1.15
159 | ACGAGATGGA | 0.971
160 | TGGAAGCTG | 1.05
161 | CGGAGGAC | 1.07
162 | AGCTGAAAAC | 1.01
163 | GGTGATAACC | 0.95
164 | TGACGTCTGT | 0.95
165 | CCCGCTGTTT | 1.31
166 | GGTCCTCGTA | 0.946
167 | AGTGCAAGTC | 1.03
168 | GCTTAAGCGT | 0.996
169 | CAAAATGCGT | 1.02
170 | CGGCTCAGAC | 1.11
171 | GGCATAGTAA | 0.936
172 | TGCATATATG | 0.963
173 | CGCGGCAGGG | 1.05
174 | CTACTCGTCT | 1.02
175 | ATATCATTAA | 1.01
176 | GAACGCTAGA | 1.1
177 | TTAACTTGGT | 0.982
178 | ATCTGAACT | 0.999
179 | AATGCCCGAG | 0.98
180 | TTTTCTAGAT | 0.983
181 | CCGTTTCTAC | 2.58
182 | ATAGCCAATC | 1.56

Row | Sequence | switch fluorescence ratio
183 | TGCGTCCTGG | 0.989
184 | TTGATCAACA | 0.989
185 | AAGATATTCG | 0.974
186 | GGCACATGAC | 1.1
187 | TTTAGGGCTA | 1.02
188 | GATATGGACT | 1
189 | CTTCTATAAA | 1.02
190 | TGCCAAATTA | 0.945
191 | CGCTGGATTT | 1.05
192 | TAAGGTGGTG | 1.02
193 | AATCGCAAAT | 1.27
194 | GAGATTCTTC | 1.05
195 | TAATAGTAGC | 0.947
196 | CACGGAGCTC | 1.48
197 | TAATCTTGAG | 1.02
198 | TGGACTTGTT | 0.943
199 | GCACTGCCGC | 1.15
200 | GGAAACCCAT | 1.01
201 | GGCTATGCTC | 1.16

Reference: the supplement of paper PMC10126150
